The labels stand for the following.
B1: LINE1-mini (parent)
chain: GGCAGAGCUCAACACAGCGUGGCAAAGUGGCUGUGGCUAGACUGCC

Read counts are not given, so values of variants with three or more changes are uncertain.

In the data set the parent is B1. Nature of the data set: self-cleavage, relative activity (ratio to wild type); higher = more cleavage; in vitro, sequencing; the parent is a self-cleaving ribozyme.
As for A4U C15U G19C U20C C42U, the self-cleavage was found to be 0.15.
With A4U C8U C46A the figure was 0.11; with A4U C8A G40U, 0.35; with A4U C8A G35A, 0.31.
The figure for A4G C8U G29U is 0.09; for A4G C23U A25G it is 0.14; for A4G A6U G17C G29A C45G C46U it is 0.03.
The figure for A4U A14G G30A is 0.11; for A4G G7U C8A A11C G29A it is 0.08; for A4G C13A U43G it is 0.
A4U A16G G30A A41U: the self-cleavage was determined as 0.06.
The figure for A4G C10A C18G G19A A25G G27A is 0.02.
The figure for A4U A14C G21U is 0.08.
As for A4U C10A G30C, the self-cleavage was 0.05.
With A4U A6C G29A G30C, the self-cleavage is 0.03.
For A4G A14U A26G U38G, the self-cleavage amounted to 0.06.
As for A4G U20G G22U C31U, the self-cleavage was 0.02.
With A4G C18U G21U A24U G33U the figure was 0.09; with A4G U9A C13G, 0.28; with A4G G27U C31A G40C, 0.01.
The figure for A4U C15U A41G is 0.05; for A4G G19U U20C G33U it is 0.06.
With A4U C15A C18U G36A A39G the figure was 0.04.
As for A4G G17U G33U, the self-cleavage turned out to be 0.04.
With A4G G17C A25U C42U the figure was 0.12; with A4G C8A C18A G19U A26U C31A G44U, 0.36; with A4C U20A C42U U43G, 0.01.
In the case of A4G G5A A12C G22A G44U, the self-cleavage came out at 0.01.
With A4G G7A U34A the figure was 0.23.
With A4C G33U U43C the figure was 0.06.
A4U A16U G17U: the self-cleavage was 0.06.
The figure for A4G C31U A41U is 0.01.
Turning to A4G G40A U43A G44U, the self-cleavage worked out at 0.12.
A4U A25C U28C A41U C46G: the self-cleavage was 0.01.
Consider A4G C18A G19A C37U G44U, for which the self-cleavage was 0.06.
With A4G G7U C8U G29U the figure was 0.25; with A4G C18A C42A C46G, 0.01; with A4G C10A C13A C42U, 0.02.
Turning to A4U A14U G27A C42U, the self-cleavage was determined as 0.11.
With A4G G5U C8U C31A G35U G36C A41U C42A the figure was 0.28; with A4U C18A C23U, 0.02.
The figure for A4G G7C C13G C31A C42A is 0.05.
The figure for A4G C23U C42A is 0.06; for A4G A6U A41U it is 0.05.
For the variant A4U C13U G17C G36C A39C C42A, the self-cleavage was 0.06.
With A4U A6U G7C A12U C13U U28C the figure was 0.07; with A4G A11G A14G, 0.01.
With A4G G7A A24C G27C the figure was 0.03.
As to A4U C8A U9G C15U G21U C31A C46A, the self-cleavage was 0.02.
Regarding A4G A26U G33A, the self-cleavage was determined as 0.1.
With A4U C15G U20C the figure was 0.02; with A4U A12C C18U G33C, 0.01; with A4G G29C C37G C42G U43G, 0.02.
With A4G C10A A41G, the self-cleavage turned out to be 0.
With A4U C13U G44C, the self-cleavage came to 0.14.
The figure for A4G A16G A39G is 0.03; for A4U A6U U9A it is 0.05.
Regarding A4G C8U G17C G21A U32G, the self-cleavage was 0.04.
With A4G G30C C37A the figure was 0.56.
A4G U20A G22A G40C: the self-cleavage was found to be 0.09.
With A4U A16U G17A A26G G33C U43C the figure was 0.1; with A4G C18A U28G U43A, 0.1.
With A4G G7C G17U C42U the figure was 0.16; with A4U C13U G29A, 0.04; with A4C G22C G27U C45U, 0.07.
As for A4G U20G G22C, the self-cleavage worked out at 0.21.
As for A4G A24G A25G, the self-cleavage was 0.16.
The figure for A4G G30A G40U is 0.53; for A4G U28A U38A it is 0.68.
The figure for A4G G19U G29A G35A is 0.04.
With A4U A6U G29A G33U G36A, the self-cleavage was determined as 0.06.
The figure for A4U C8G G21C A25G is 0.02.
With A4U A24U C37U G40A C42A the figure was 0.01.
The figure for A4G G17C C23A C31A G36C is 0.02; for A4G U43A C46G it is 0.12; for A4G A12G G21U it is 0.01.
In the case of A4G A14U U32C U43A, the self-cleavage was determined as 0.28.
Turning to A4G A26U U28A A41C, the self-cleavage worked out at 0.02.
The figure for A4G G30U C31A is 0.3; for A4G U9A U20A G27U it is 0.06; for A4G A24G U28A it is 0.19.
The figure for A4U C13A C46U is 0.1; for A4G U20A G33C it is 0.2.
On to A4G G7U G21C A41U, for which the self-cleavage turned out to be 0.08.
With A4C U9A G17C C45A the figure was 0.06; with A4U A14C G17U C23U, 0.11; with A4G U28A G35C, 0.03.
Regarding A4U C8U C31G, the self-cleavage amounted to 0.12.
As to A4G G33C G40C C46U, the self-cleavage is 0.01.
The figure for A4G G40C C42A is 0.06.
As to A4G A12G C37G, the self-cleavage amounted to 0.09.
With A4G A6G C8G A12C C13A G29U U38A the figure was 0.01; with A4U C10U C46G, 0.12; with A4G U34C U43C, 0.02.
As to A4U C8A C15A, the self-cleavage stood at 0.16.
For the variant A4U A24U G27A G30U G33U G40U U43G C46A, the self-cleavage turned out to be 0.14.
The figure for A4G U20G C42U is 0.07; for A4C G22U G27A A41G it is 0.01; for A4G A16U G19U U20G C37A it is 0.03.
Turning to A4G A24G G33A, the self-cleavage stood at 0.08.
Take A4U A16G A25U A26U: the self-cleavage was determined as 0.04.
For A4G C8U C31A, the self-cleavage was 0.22.
As to A4G C15G G19U G36A, the self-cleavage worked out at 0.02.
Consider A4U A24G C37A U38A, for which the self-cleavage was found to be 0.03.
A4G C13A A26G: the self-cleavage was found to be 0.03.
With A4G G17U G21A A39C the figure was 0.02; with A4G A6G G33C A41U, 0.03.
With A4G G35A C42U G44C, the self-cleavage came to 0.
On to A4G A26G G27C G44C, for which the self-cleavage came to 0.01.
The figure for A4G A14G C18A G27A G30U U34A is 0.06.
On to A4U A6G U20A C23U G30C A39C G40U, for which the self-cleavage amounted to 0.04.
The figure for A4G U20G U34C A41C is 0.11.
The figure for A4G G7U U38C C45G is 0.17.
With A4G G5C U32C the figure was 0.11; with A4G U9G U20A A41U C42U, 0.03.
Take A4G C15A A16U U28C G33C: the self-cleavage turned out to be 0.04.
The figure for A4U A24U G29U G30C C42A G44U is 0; for A4U C15U G22U U34G it is 0.06; for A4U C8A C18U U20G it is 0.05.
Take A4G G21U U34G: the self-cleavage amounted to 0.05.
With A4G C18G A24G the figure was 0.12.
On to A4U C15A U20C G40U G44A, for which the self-cleavage was found to be 0.01.
In the case of A4U A6G G17U, the self-cleavage is 0.22.
The figure for A4C G22U C46A is 0.37; for A4C G27C G33A it is 0.05.
With A4G A14G G29U C45G the figure was 0.13; with A4C U28G C42A, 0.13.
Turning to A4G G17C G35C G40C, the self-cleavage was 0.06.
With A4G G40A C42A the figure was 0.26.
The figure for A4G C15G G17A A24U U38G is 0.02; for A4C U9C G22U C23A C31U it is 0.05; for A4G G21U U28G it is 0.18.
The figure for A4G U9A G17A G21U G30C G33A C46A is 0; for A4G G5C G7C it is 0.16.
Regarding A4G C15G C23U, the self-cleavage amounted to 0.08.
The figure for A4G A11U G21A G36U is 0.
As to A4U C8U C10A C46U, the self-cleavage was 0.05.
With A4U A6C C10A A25C U32G C46U the figure was 0.01.
With A4G C8A A26G C37U the figure was 0.52; with A4C G33U G44A, 0.04; with A4C U28A C45U C46U, 0.12.
The figure for A4G A12U A14U A41G is 0.09; for A4G A6U G22C it is 1.12; for A4C G22U U43A it is 0.03.
On to A4G U9G U20G G30C C46G, for which the self-cleavage came to 0.01.
With A4C U9A U32C C46A, the self-cleavage was determined as 0.08.
For the variant A4G C10A G30U, the self-cleavage stood at 0.02.
With A4G C10A G30A, the self-cleavage was 0.05.
The figure for A4G C31U U38A is 0.01.
With A4G A6G A12G G30C G33A A41C the figure was 0.01; with A4G C15G A25C G27U, 0.02.
With A4G C10A C42A G44C the figure was 0.01; with A4U C15U C42U C46A, 0.2; with A4U A6C A16G G27A U28A G44U, 0.01.
With A4U C8G C18A G19A U28G, the self-cleavage is 0.03.
For A4U C10A G40A, the self-cleavage is 0.02.
The figure for A4G A6C C37U A41U is 0.12; for A4C G22A U28A it is 0.03.
In the case of A4G G21U G33U, the self-cleavage came out at 0.17.
A4G C13U A24C C31U: the self-cleavage came out at 0.02.
A4G G33A G36U: the self-cleavage was 0.1.
Turning to A4G G21A A26U, the self-cleavage stood at 1.25.
With A4G C10U U20G, the self-cleavage came out at 0.28.
The figure for A4G A24G G29A C46A is 0.12; for A4G U9C C13A A14G G17C A24C A26C G33U it is 0.02.
With A4G G5U U20C C23U G33C A41G, the self-cleavage is 0.03.
Regarding A4G A16C C45U, the self-cleavage was determined as 0.02.

For the origin of these results see the RNAGym collection of RNA variant scans (doi:10.7554/elife.90254).
